T1: UNK ZnF1-6 (called full-length) (human, UniProt Q9C0B0 30-357)
T1 sequence: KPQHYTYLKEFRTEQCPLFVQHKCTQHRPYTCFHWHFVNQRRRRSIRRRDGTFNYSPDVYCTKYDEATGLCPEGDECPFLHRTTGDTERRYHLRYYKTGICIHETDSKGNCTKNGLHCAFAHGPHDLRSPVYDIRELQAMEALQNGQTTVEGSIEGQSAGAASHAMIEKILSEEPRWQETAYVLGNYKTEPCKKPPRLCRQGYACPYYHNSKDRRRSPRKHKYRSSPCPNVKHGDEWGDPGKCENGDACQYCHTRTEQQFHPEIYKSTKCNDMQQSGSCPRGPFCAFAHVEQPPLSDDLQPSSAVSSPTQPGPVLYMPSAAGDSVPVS

B1: chr9:114598126:114598323:+|3pUTR|ENSG00000136888|msi1|total|mutant (ssRNA)
RNA: GGGAGUUCUACAGUCCGACGAUCUCUUUGUAACCUGUGUGAAGCAGCAGCCAGCCUUAAAGCCGUCCAUUCUUGCUAAUGGUCCGAACAGUGAAUACCCGUGGAAUUGUUUGGGCUGCUUUCCGUUUCUCUUAAUCAAAAUUACAACAGAGGAUUGAGCAUCA
B2: chr5:52955293:52955406:+|3pUTR|ENSG00000213949|unk|total|mutant (ssRNA)
RNA: GGGAGUUCUACAGUCCGACGAUCUACCAACCAGUGUGAGCUGACUUCAGCACACCACUGAGACAGAUUACACGACCGACAGACCGACCGACCGACCGACCGACCGACCGACCGACCGACCGACCGAUAUUGACCGAGAACAUGCAACAGAGGAUUGAGCAUCA
B3: chr13:52036708:52036809:-|3pUTR|ENSG00000197168|unk|FALSE|unique (ssRNA)
RNA: GGGAGUUCUACAGUCCGACGAUCGUAGAACUUUUGAAUAUAGCCAUUAAUAUUUUUACUUUAAAGUUUCUAUUAAGAAAUCUUAGGCCGGGCAGUCUCAUCACUUUGGGAGGCCAAGGCAGGCAGAUCAUGAGGUCAGGAGUUCAACAGAGGAUUGAGCAUCA
B4: chr6:49492913:49492980:+|3pUTR|ENSG00000031691|msi1_unk|FALSE|overlapping (ssRNA)
RNA: GGGAGUUCUACAGUCCGACGAUCUGUUGAAUAUUUUCUACUGUCAUCAAAACAUAUUCCCAAAAAGUAUUAAAAAGGAACCUUAGCACAUUUAUUUUAUUAAAACAAGAAAACCCAAAAUAUAUAAACCUUUUCUUAUUAUGACAACAGAGGAUUGAGCAUCA
B5: chr22:38111494:38112305:-|three_prime_utr|ENSG00000184381|control|control|control (ssRNA)
RNA: GGGAGUUCUACAGUCCGACGAUCAGGCCAAGCCCAGCCACUGCCCUCCCGGGCAGAUCUGGGCCCAGGCACCUCUGAGUCCAUAGACCAGGCCUGGGAGAAUGCCAAGCUGCCUGCCCGAGGCUGGUCCUGAAGGCCUGUCUCCAACAGAGGAUUGAGCAUCA
B6: chr10:60791946:60792061:+|CDS|ENSG00000170312|unk|FALSE|unique (ssRNA)
RNA: GGGAGUUCUACAGUCCGACGAUCGUCAGCUCGUUACUCAACUCCAGUUGACAUUUGGAGUAUAGGCACCAUAUUUGCUGAACUAGCAACUAAGAAACCACUUUUCCAUGGGGAUUCAGAAAUUGAUCAACUCUUCAGGAUUUUCAACAGAGGAUUGAGCAUCA
B7: chr3:149084675:149084859:-|CDS|ENSG00000071794|unk|total|mutant (ssRNA)
RNA: GGGAGUUCUACAGUCCGACGAUCCCAACUUUCUUUCCACGUUUUGAAUUCCAAGAUGUUAUCCCUCCAGAUGACUUUCUAACCCGUGAUGAAGAAGCCGAUUCCGUUUUAUUUGGAAGUUUGAGAGGUCAUGUGGUUGGACUACAACAGAGGAUUGAGCAUCA
B8: chr17:77216858:77216994:+|3pUTR|ENSG00000129657|unk|FALSE|bound_elsewhere (ssRNA)
RNA: GGGAGUUCUACAGUCCGACGAUCUGUUUCUACCUUUAGUACCUUGCCACUCUUUUAAAACGCUGCUGUCAUUUCCCAUUUCUUAGUACUAAUGAUUCUUUGAUUCUCCCUCUAUUAUGUCUUAAUUCACUUUCCUUCCUAAAUCAACAGAGGAUUGAGCAUCA
B9: chrX:149548394:149548910:-|CDS|ENSG00000283697|control|control|control (ssRNA)
RNA: GGGAGUUCUACAGUCCGACGAUCGCUACUACCUGGAUGGAAGGCACAGGGAUUCUUAGUAGUCUGGUUUACUCAGAUAAUGGUAGUGUAAUGUCUUUGUACAAUAUCUGUUACUAUGCUCUGUUGGCCUCCCUCUCAGUCAUGCAACAGAGGAUUGAGCAUCA
B10: ENSG00000070961:be:win_5751|3pUTR|ENSG00000070961|bound_else_gene|NA|bound_elsewhere_windowed (ssRNA)
RNA: GGGAGUUCUACAGUCCGACGAUCCUAAAAAUUGACCCUAUCAACUGGAGAGCCCACAAGGCAUAGGGAAUAGAGAAAAGGGAAAUGUUUUCAGUUUUCUUUUUUAUUUUGGUUAUGCUUAAAUAUGAAUGUAAUUACCAAAAGCAACAGAGGAUUGAGCAUCA
B11: chr4:177362735:177362840:+|3pUTR|ENSG00000109674|unk|FALSE|unique (ssRNA)
RNA: GGGAGUUCUACAGUCCGACGAUCAAAGUGUUUUUAGUAUGCUUUUAGUCUCUUGUAACUGGGGAGAAGCAGUGUUUUUUUUUUAGGAAAGGAUUAUGCGACACAAUAAAAUAAGAUAUUCUGUCUGUAGUGAAUACAUUUCUCCAACAGAGGAUUGAGCAUCA
B12: chr1:27370145:27370587:-|three_prime_utr|ENSG00000142748|control|control|control (ssRNA)
RNA: GGGAGUUCUACAGUCCGACGAUCCCAGUGCUGCCACUGCCCCCAUGAAUGACCCAGGGCAAUCCUGUCUCCUCUGUGGGCCUUAGUUUCCGCAUCUGAGAAAUGGCAAUCAUGAAACAGGAUGGUGCAACAGUGAAGAAUUUGCAACAGAGGAUUGAGCAUCA
B13: chr17:19904301:19906232:-|three_prime_utr|ENSG00000108599|control|control|control (ssRNA)
RNA: GGGAGUUCUACAGUCCGACGAUCAACAGCACUAUAUUUCUGAUCUGUCACUGUUGUUUCCAGGAGAGAAUGGGAGACAAUCCUAGACUUCCACCAUAAUGCAGUUACCUGUAGGCAUAAUUGAUGCACAUGAUGUUCACACAGCAACAGAGGAUUGAGCAUCA
B14: chr11:62888716:62888817:+|3pUTR|ENSG00000168003|unk|FALSE|unique (ssRNA)
RNA: GGGAGUUCUACAGUCCGACGAUCUUUUCUCUUUUUUAAAAACAAACAAACAAACUGUUGCAGAUUAUGAGUGAACCCCCAAAUAGGGUGUUUUCUGCCUUCAAAUAAAAGUCACCCCUGCAUGGUGAAGUCUUCCCUCUGCUUCAACAGAGGAUUGAGCAUCA

Binding signal data for 14 molecules are collected here from article PMC12136788.

The list shows a part of the results.

The assay deals with T1, UNK ZnF1-6 (called full-length). In words: nsRBNS (natural sequence RNA bind-n-seq); RBNS binding buffer (assumed for nsRBNS): 25 mM Tris pH 7.5, 150 mM KCl, 3 mM MgCl2, 0.01% Triton X-100, 500 ug/ml BSA, 20 U/ml SUPERase-In, 4 C; UNK is unkempt and MSI1 is Musashi-1; names of the RNAs are library labels; protein concentration not given here; high values mean tight binding.
As for B1, the binding signal was 0.687 enrichment R. On to B2, for which the binding signal is 0.427 enrichment R.

B3 displayed a binding signal of 21 enrichment R. With B4 the figure was 8.45 enrichment R; with B5, 1.94 enrichment R. In the case of B6, the binding signal was determined as 0.452 enrichment R. Molecule B7 registered a binding signal of 0.5 enrichment R. With B8 the figure was 14 enrichment R; with B9, 0.662 enrichment R; with B10, 0.412 enrichment R. Turning to B11, the binding signal turned out to be 1.93 enrichment R.

As to B12, the binding signal turned out to be 0.792 enrichment R. For B13 the value was 0.707 enrichment R; for B14, 0.635 enrichment R.
